Results from PMC4981545 (Cell reports, 2016).

Experiments:
[1] = biological target: GST-tagged HPV-16 E2 (16E2), immobilized (HPV-16); assay: pull-down
[2] = biological target: GST-tagged HPV-18 E2 (18E2), immobilized (HPV-18); assay: pull-down

B1: FLAG-tagged human BRD4 region […], bacterially expressed (fragment a) (domain or fragment)
chain: not shown
B1: binds [1]; binds [2].
